Source: PubChem BioAssay AID485294 (National Center for Advancing Translational Sciences (NCATS), 2010)
In all, about 370,000 compounds went through this assay and about 150 (0.041%) were called active. Inconclusive results, whose numbers are uncertain, are shown with a selection of clear calls. Calls follow the shape of the dose curve; as a rule, active = well fitted inhibition curve with a large enough effect; inconclusive = small, poorly fitted or top-dose-only effect; inactive = flat fitted curve, though single readings scatter. No potency is given beside an inconclusive call; the fits are too rough.

Molecular target: Beta-lactamase (Escherichia coli (strain K12)) (UniProt P00811)
Experiment: qHTS Inhibitors of AmpC Beta-Lactamase (assay with detergent); also: nearly all actives have a fitted effect of over 25% in size
Details: AmpC hydrolysis of nitrocefin, absorbance 480 nm, 0.01% Triton; series mostly up to 114 µM
How it was run: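 AmpC (5.3 nM in the dispensed reagent) in 20 mM phosphate pH 7.0 with 0.01% (detergent screen) or 0.0001% Triton X-100 was preincubated with compounds for 15 min at room temperature. Nitrocefin was then added from an 800 uM solution, and hydrolysis was followed at 480 nm.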
Potency is read from the fitted curve at half-maximal effect; tags tell the direction and shape of the fitted curve.

Chain of UniProt P00811 (P00811 whole entry, looked up): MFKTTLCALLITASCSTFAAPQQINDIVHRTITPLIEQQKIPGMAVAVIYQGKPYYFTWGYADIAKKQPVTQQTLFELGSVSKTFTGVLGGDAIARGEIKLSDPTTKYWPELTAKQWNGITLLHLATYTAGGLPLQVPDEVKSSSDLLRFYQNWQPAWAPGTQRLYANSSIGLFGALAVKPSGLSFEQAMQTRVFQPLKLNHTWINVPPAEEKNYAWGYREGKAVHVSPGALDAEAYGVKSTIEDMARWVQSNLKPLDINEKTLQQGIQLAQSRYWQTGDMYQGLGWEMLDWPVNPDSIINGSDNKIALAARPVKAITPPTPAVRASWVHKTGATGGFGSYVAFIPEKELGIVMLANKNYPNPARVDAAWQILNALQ

| Compound | Potency |
| --- | --- |
| COc1ccc(CCNC(=O)C2CCC(CNS(=O)(=O)c3ccc(C)cc3)CC2)cc1OC (stereo not given) | inactive |
| CCCCn1cc(S(=O)(=O)c2ccc(OC)cc2)c(=O)c2cc(CC)ccc21 | inactive |
| O=C1COc2ccc(C(=O)COC(=O)Cc3ccccc3)cc2N1 | inconclusive [inhibitor, full curve] |
| COCCN1CCN(C(=O)c2cc(COc3ccc(F)cc3F)on2)CC1 | inconclusive [inhibitor, full curve] |
| CC(NCc1cccnc1)c1ccccc1 (stereo not given) | inconclusive [inhibitor, partial curve, poor fit] |
| COc1ccc(-c2nnc(SCC(=O)N(Cc3ccccc3)C(C)(C)C)o2)cc1OC | inactive |
| CCOC(=O)C1CCCN(CC(=O)c2ccc(F)cc2)C1 (stereo not given) | inactive |
| CC(=O)N1CCN(c2ccc(NC(=O)c3ccccc3C)cc2)CC1 | inconclusive [inhibitor, single point] |
| CC(C)C(=O)OCc1cn(-c2ccc(Cl)c(Cl)c2)nn1 | inconclusive [inhibitor, full curve] |
| Cc1ccc(S(=O)(=O)N(C)CC(=O)NC2CC(C)(C)NC(C)(C)C2)cc1 | inconclusive [inhibitor, full curve] |
| O=C(NCc1ccco1)Nc1ccc2snnc2c1 | inconclusive [inhibitor, full curve, poor fit] |
| OC(CN=c1sc2ccccc2n1CC(O)COc1ccccc1)COc1ccccc1 (stereo not given) | inconclusive [inhibitor, single point] |
| O=C(Nc1ccn(Cc2ccc(F)cc2)n1)c1ccncc1 | inconclusive [inhibitor, full curve, poor fit] |
| CC1Cc2ccccc2N1C(=O)c1cnc2ccccn2c1=O (stereo not given) | inconclusive [inhibitor, single point] |
| CCOC(=O)N1CCN(C(=O)C2CCC(=O)N(Cc3cccc(C(F)(F)F)c3)C2)CC1 (stereo not given) | inactive |
| Cc1ccccc1C(=O)NC1CCN(CC(=O)Nc2ccc(Br)cc2)CC1 | inconclusive [inhibitor, full curve] |
| Cc1cccnc1NC(=S)Nc1ncccc1C | inconclusive [inhibitor, single point] |
| CCC(C)N1C(=O)/C(=C\c2cc3c4c(c2)CCCN4CCC3)C(=O)NC1=S (stereo not given) | inconclusive [inhibitor, full curve, poor fit] |
| O=C(Nc1ccccc1OC(F)F)c1ccc(-n2cncn2)c([N+](=O)[O-])c1 | inconclusive [inhibitor, single point] |
| CCCCOC(=O)CCCN1C(=O)/C(=C2\SC(=S)N(CCCC(=O)OCCCC)C2=O)SC1=S | inconclusive [inhibitor, single point] |
| Cc1nc2ccccc2nc1N1CCOCC1 | inactive |
| CCOC(=O)CSc1cn2c(n1)CCC2 | inconclusive [inhibitor, single point] |
| O=C(Nc1ccon1)c1cc(-c2ccccc2)nc2ccccc12 | inactive |

| Compound | Potency |
| --- | --- |
| Cc1cc(C)c(NC(=O)CS(=O)CC(=O)NCCCc2ccccc2)c(C)c1 (stereo not given) | inconclusive [inhibitor, full curve, poor fit] |
| O=C(Nc1ccc(Br)cc1)c1cccc2c1C(=O)N(C1CCCCC1)C2 | inactive |
| COc1ccccc1CCNC(=O)c1ccc(-c2nc(CSc3ccc(C)cc3)c(C)o2)cc1 | inactive |
| Oc1ccc2ccccc2c1CN1CCOCC1 | inactive |
| CCC(COC(=O)Nc1cccc(C)c1)NC(=O)OCC(C)C (stereo not given) | inactive |
| O=C(c1ccc(COc2ccccc2[N+](=O)[O-])o1)N1CCCCC1 | inconclusive [inhibitor, partial curve] |
| CC(C)n1c(SCC(=O)Nc2ccc(F)cc2)nnc1C1CC1 | inconclusive [inhibitor, full curve, poor fit] |
| Cc1ccc(CNC(=O)CSc2ccc(-c3cccs3)nn2)cc1 | inactive |
| Cc1ccccc1C(=O)c1c[nH]c(C(N)=O)c1 | inconclusive [inhibitor, partial curve, poor fit] |
| O=C(COc1ccc(-c2nnco2)cc1)Nc1ccc(C(F)(F)F)cc1 | inconclusive [inhibitor, single point] |
| COc1ccc(NS(=O)(=O)c2ccc3oc(SC4CCOC4=O)nc3c2)cc1 (stereo not given) | inconclusive [inhibitor, single point] |
| CC(C)CNC(=O)c1ccc2c(c1)C(=O)N(C1CCCCC1)C2=O | inactive |
| Cc1ccc(C(=O)N/C(=C/c2ccc(-c3cccc([N+](=O)[O-])c3)o2)C(=O)NCCCN(C)C)cc1 | inconclusive [inhibitor, single point] |
| OCCNc1nc(NCc2ccccc2)c2ccccc2n1 | inconclusive [inhibitor, full curve, poor fit] |
| CCOC(=O)c1c(C)n(C)c2ccc(O)c(CN3CCCCC3)c12 | inconclusive [inhibitor, full curve, poor fit] |
| CC(NC(=O)Nc1nccs1)(C(F)(F)F)C(F)(F)F | inconclusive [inhibitor, partial curve, poor fit] |
| Cc1cc(Cl)ccc1OC(C)C(=O)O (stereo not given) | inconclusive [inhibitor, single point] |
| O=C1CC(c2ccc(Cl)c(Cl)c2)CC(O)=C1C=NCCN1CCNCC1 (stereo not given) | inconclusive [inhibitor, full curve, poor fit] |
| COc1cc(CC(=O)OCC(=O)NC2CCCCC2C)cc(OC)c1OC (stereo not given) | inconclusive [inhibitor, partial curve, poor fit] |
| Cc1nc2cc(C(F)(F)F)ccc2n1C | inconclusive [inhibitor, full curve, poor fit] |
| COCCCn1c(SCC(=O)OC2CCCCC2)nnc1-c1cccs1 | inconclusive [inhibitor, full curve, poor fit] |
| CCCCNC(=O)C(Cc1ccccc1)NS(=O)(=O)c1ccc2c(c1)c(=O)n(C)c(=O)n2C (stereo not given) | inactive |
